Our source for the Potency values is PubChem BioAssay AID360 (National Center for Advancing Translational Sciences (NCATS), 2006).

Among all 48,000 compounds or so, about 550 (1.1%) were called active. Another 4% or so got no clear call; they are omitted. Rule as the data show it: active = potency below about 15 µM; inconclusive = mostly about 16 µM to 33 µM; inactive = weaker than that. This is one part of the list.
Potency is read from the fitted curve at half-maximal effect.

Sequence of UniProt P04062 (P04062 whole entry, looked up): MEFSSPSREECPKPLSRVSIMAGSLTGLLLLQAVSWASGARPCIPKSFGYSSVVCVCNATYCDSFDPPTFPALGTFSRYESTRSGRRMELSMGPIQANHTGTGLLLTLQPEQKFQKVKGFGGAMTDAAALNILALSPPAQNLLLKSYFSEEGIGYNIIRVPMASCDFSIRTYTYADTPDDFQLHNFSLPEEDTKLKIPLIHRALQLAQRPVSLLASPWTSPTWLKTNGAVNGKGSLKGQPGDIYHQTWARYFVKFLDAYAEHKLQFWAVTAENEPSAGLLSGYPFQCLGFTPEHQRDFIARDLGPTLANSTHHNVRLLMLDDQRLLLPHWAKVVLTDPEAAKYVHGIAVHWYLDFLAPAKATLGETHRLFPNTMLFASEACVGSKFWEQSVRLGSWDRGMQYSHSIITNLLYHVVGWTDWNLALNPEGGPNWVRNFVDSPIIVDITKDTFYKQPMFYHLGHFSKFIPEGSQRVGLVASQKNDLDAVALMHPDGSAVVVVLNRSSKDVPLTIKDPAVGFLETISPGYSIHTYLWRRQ

This test has as its target Lysosomal acid glucosylceramidase (Homo sapiens) (UniProt P04062). Description: Glucocerebrosidase.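 Also: the screen sought inhibitors.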 The note with it: purified enzyme, resorufin glucoside fluorescence (screen aimed at inhibitors), 20 min; series mostly up to 77 µM. Put shortly:
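Normal human glucocerebrosidase (0.2 nM final) was assayed with resorufin β-D-glucopyranoside (30 uM final) in 50mM citric acid/KH2PO4, 10mM sodium taurocholate, 0.01% tween-20, pH 5.9. Compounds were titrated; fluorescence (Ex 548, Em 600) read after 20 min at RT.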
As for `CCC(=O)Nc1nnc(SCC(=O)Nc2ccc(F)cc2)s1`, the Potency is inactive: > 76.9 µM.

Turning to `Cc1ccccc1N(CC(=O)NCc1ccncc1)S(C)(=O)=O`, the Potency is inactive: > 76.9 µM.

Regarding `CC1=C(C(N)=O)C(c2ccc(Cl)cc2Cl)n2ncnc2N1` (configuration not stated), the Potency is inactive: > 76.9 µM.

For `Cc1ccc(-c2nnn(CC(=O)N3CCN(c4ccccc4)CC3)n2)o1`, the Potency is inactive: > 76.9 µM.

Regarding `Cc1ccc(CC23CN4CCN(CC(C4)C2O)C3)c(C)c1` (configuration not stated), the Potency was inactive: > 76.9 µM.

On to `CCOC(=O)N1CCC(Nc2ncnc3c2cnn3-c2ccc(Cl)cc2)CC1`, for which the Potency was inactive: > 76.9 µM.

With `Cc1nnc(SCC(=O)Nc2ccc(Br)cn2)[nH]c1=O`, the Potency was inactive: > 76.9 µM.

For `CCOC(=O)CCCCC(=O)c1[nH]c(=O)[nH]c1Cn1cnc2ccccc21`, the Potency is inactive: > 76.9 µM.

Take `CSc1c(C#N)c(N)c(C#N)c2c1COC(C)(C)C2`: the Potency was inactive: > 76.9 µM.

`COc1ccc(S(=O)(=O)Nc2cc(C)ccc2OC)cc1C`: the Potency is inactive: > 76.9 µM.

For `O=c1c2[nH]c3ccc(F)cc3c2ncn1CCN1CCOCC1`, the Potency is inactive: > 76.9 µM.

Regarding `CCOC(=O)N1CCN(S(=O)(=O)c2ccc(F)c(C(=O)Nc3cc(C)cc(C)c3)c2)CC1`, the Potency is inactive: > 76.9 µM.

In the case of `c1ccc(-n2cccc2CNC2CCCCC2)cc1`, the Potency was inactive: > 76.9 µM.

As for `Cn1nc(-c2ccc(OCC(=O)NCC3CCCO3)cc2)c2ccccc2c1=O` (configuration not stated), the Potency was inactive: > 76.9 µM.

Turning to `CCOC(=O)Cc1cc(=O)n2[nH]c(C)cc2n1`, the Potency is inactive: > 76.9 µM.

For the compound `CCOC(=O)CNc1nc(C(C)(C)C)nc2c1nnn2Cc1ccccc1Cl`, the Potency was inactive: > 76.9 µM.

With `N#Cc1ccc(CN2CCN(C(=O)c3ccccc3)CC2)c(Cl)c1`, the Potency is inactive: > 76.9 µM.

Take `COc1ccc(/C=N/c2nc3ccccc3n2C)cc1OC`: the Potency is inactive: > 76.9 µM.

Consider `Cn1c(CCN2CCCCCC2)nc2cc(NC(=O)Nc3ccccc3)ccc21`, for which the Potency was inactive: > 76.9 µM.

Consider `O=c1nc(N(c2ccccc2)c2ccccc2)[nH]c(=O)[nH]1`, for which the Potency is inactive: > 76.9 µM.

As for `C/C(Cl)=C\Cn1c(Nc2ccc(C)cc2)nc2c1c(=O)n(C)c(=O)n2C`, the Potency is inactive: > 76.9 µM.

For `CN(Cc1ccccc1)C(=O)CSc1nnc(-c2ccco2)n1-c1ccccc1`, the Potency was inactive: > 76.9 µM.

Take `CCSc1nnc(CNc2ccc(F)cc2)n1CC1CCCO1` (configuration not stated): the Potency is inactive: > 76.9 µM.

For `O=S(=O)(Cc1ccccc1Cl)Nc1ccccn1`, the Potency is inactive: > 76.9 µM.

In the case of `CCOC(=O)C1=C(C)Nc2nc3ccccc3n2C1c1ccncc1` (configuration not stated), the Potency was inactive: > 76.9 µM.

For the compound `Cc1nnc(SCC(N)=O)n1CC1CCCO1` (configuration not stated), the Potency was inactive: > 76.9 µM.

As to `N#Cc1cc2c(nc1SCC(=O)N1CCCCC1)CCCCC2`, the Potency is inactive: > 76.9 µM.

Consider `O=C(NCCN1CCOCC1)C1CCC(=O)N1Cc1ccccc1Cl` (configuration not stated), for which the Potency is inactive: > 76.9 µM.

For the compound `COCCn1nnnc1C(CC(C)C)N1CCN(C(=O)c2ccco2)CC1` (configuration not stated), the Potency was inactive: > 76.9 µM.

As to `OC1CC(c2ccco2)NC2(CCCCC2)C1` (configuration not stated), the Potency was inactive: > 76.9 µM.

Take `CCNC(=O)CC1C(=O)N(c2ccccc2)C(=O)N1Cc1ccc(OC)cc1` (configuration not stated): the Potency is inactive: > 76.9 µM.

Take `CCOC(=O)c1cnn(-c2nc(SC)nc3sc4c(c23)CCC4)c1N`: the Potency is inactive: > 76.9 µM.

On to `CCc1ccc(-c2nc(CN3CCC(C(=O)N4CCN(c5ccccc5)CC4)CC3)c(C)o2)cc1`, for which the Potency was inactive: > 76.9 µM.

Turning to `Cc1cc(-c2ccccc2C(=O)NCc2ccccc2)on1`, the Potency is inactive: > 76.9 µM.

In the case of `COC(=O)c1cc(NC(=O)CC2SCCNC2=O)cc(C(=O)OC)c1` (configuration not stated), the Potency is inactive: > 76.9 µM.

With `O=C(CSc1nnnn1-c1ccc2c(c1)CCC2)NCc1cccs1`, the Potency was inactive: > 76.9 µM.

On to `O=C1c2[nH]nc(-c3ccccc3O)c2C(c2ccc(F)cc2)N1CC1CCCO1` (configuration not stated), for which the Potency result was “inactive”.

Regarding `COc1ccc(C(CNC(=O)c2ccc(S(=O)(=O)N3CCOCC3)cc2)N2CCCCC2)cc1` (configuration not stated), the Potency was inactive: > 76.9 µM.

Consider `CC1=C(C(=O)Nc2ccccn2)C(c2ccc(F)cc2)n2ncnc2N1` (configuration not stated), for which the Potency is inactive: > 76.9 µM.

As for `CCOC(=O)c1c(C)nc2sccn12`, the Potency is inactive: > 76.9 µM.

Consider `O=C(c1n[nH]c(=O)c2ccccc12)N1CCOCC1`, for which the Potency was inactive: > 76.9 µM.

`CCOc1ccc(-c2nnn(CC(=O)Nc3cccc(OC)c3)n2)cc1OCC`: the Potency is inactive: > 76.9 µM.

For the compound `CC(C)CNS(=O)(=O)c1ccc(CCC(=O)NCc2ccco2)cc1`, the Potency was inactive: > 76.9 µM.

Consider `CCOC(=O)C1CCN(C(=O)CC(C)c2ccccc2)CC1` (configuration not stated), for which the Potency was inactive: > 76.9 µM.

With `N#Cc1nc(-c2ccc(Cl)cc2)oc1NCCc1ccccn1`, the Potency was inactive: > 76.9 µM.

Consider `O=C(NS(=O)(=O)c1ccccc1)c1ccccc1O`, for which the Potency was inactive: > 76.9 µM.

For the compound `O=C(Nn1cnc2ccccc2c1=O)c1ccc(F)cc1Cl`, the Potency was inactive: > 76.9 µM.

Take `COc1ccc(OC)c(N(CC(=O)Nc2ccccc2)S(C)(=O)=O)c1`: the Potency was inactive: > 76.9 µM.

Consider `CCC(C)(C)NC(=O)C(c1cccn1C)N(Cc1ccc(C)cc1)C(=O)Cn1nnc2ccccc21` (configuration not stated), for which the Potency is inactive: > 76.9 µM.

Regarding `CN(C)C(=O)Nc1ccc(F)cc1F`, the Potency was inactive: > 76.9 µM.

On to `CCOC(=O)C1CCN(c2cc(C)nc3cc(-c4cccc(F)c4)nn23)CC1`, for which the Potency is inactive: > 76.9 µM.

With `CN(Cc1ccccc1)Cc1nc2c(c(=O)n(C)c(=O)n2C)n1CCCc1ccccc1`, the Potency was inactive: > 76.9 µM.

Consider `Cc1nn(Cc2ccc(Cl)cc2)c(C)c1NC(=O)c1noc2c1CCCCC2`, for which the Potency was inactive: > 76.9 µM.

As for `CC(=O)c1nc2ccccc2n1S(=O)(=O)c1ccc(C)cc1`, the Potency was inactive: > 76.9 µM.

On to `COC(=O)CSc1nc2cc3c(cc2cc1C#N)OCO3`, for which the Potency was inactive: > 76.9 µM.

For the compound `O=C(NC1CCCCC1)C1CC(O)CN1C(=O)OCc1ccccc1` (configuration not stated), the Potency is inactive: > 76.9 µM.

Take `O=C(Nc1ccc(N2CCOCC2)cc1)c1cccc(S(=O)(=O)N2CCCC2)c1`: the Potency is inactive: > 76.9 µM.

As for `Cc1ccc2c(c1)nnn2C1CCN(S(=O)(=O)c2cccc(S(=O)(=O)N(C)C)c2)CC1`, the Potency was inactive: > 76.9 µM.

As to `Cc1ccc(C(C)NC(=O)c2cc(C)oc2C)cc1` (configuration not stated), the Potency was inactive: > 76.9 µM.

On to `COc1ccc(S(=O)(=O)N2CCOCC2)c(Cl)c1Cl`, for which the Potency is inactive: > 76.9 µM.

Take `O=C(NCCN1C(=O)CCC1=O)c1ccncc1`: the Potency is inactive: > 76.9 µM.

As to `CCn1c(SCC(=O)Nc2nonc2C)nnc1-c1ccco1`, the Potency was inactive: > 76.9 µM.

Regarding `N#Cc1c(-c2cccs2)cc(-c2ccccn2)nc1N`, the Potency is inactive: > 76.9 µM.

As for `COC1(OC)N=C(N)C2(C#N)C(c3ccc4c(c3)OCO4)C12C#N` (configuration not stated), the Potency is inactive: > 76.9 µM.

As for `Cc1c(NC(=O)c2cc(C(C)C)on2)c(=O)n(-c2ccccc2)n1C`, the Potency is inactive: > 76.9 µM.

As to `Cc1cc(=O)oc2cc(OC(C)C(=O)N3CCCc4ccccc43)ccc12` (configuration not stated), the Potency was inactive: > 76.9 µM.

`CCOC(=O)c1sc(NC(=O)CSc2n[nH]c(-c3ccccc3)n2)c(C#N)c1C`: the Potency result is “inactive”.

On to `CCc1c(C(=O)NCc2ccc3c(c2)OCO3)[nH]c(C)c1C(C)=O`, for which the Potency was inactive: > 76.9 µM.

Turning to `Cc1cc2ccccc2n2c(SCC(=O)N3CCN(C(=O)c4ccco4)CC3)nnc12`, the Potency is inactive: > 76.9 µM.

With `Cc1nc2ccccc2nc1OCC(=O)Nc1cc(C(F)(F)F)ccc1N1CCOCC1`, the Potency is inactive: > 76.9 µM.

Turning to `O=C1c2ccccc2C(=O)N1Cc1nc2ccccc2c(=O)n1CCN1CCOCC1`, the Potency is inactive: > 76.9 µM.

As to `COC(=O)C1CCN(C(=O)NC(C)(C)C)CC1`, the Potency is inactive: > 76.9 µM.

In the case of `O=C(O)c1[nH]c2ccc(Cl)cc2c1CC(=O)N1CCN(c2ccccc2)CC1`, the Potency is inactive: > 76.9 µM.

In the case of `O=C(Nc1ccc2nc(-c3cccs3)[nH]c2c1)c1cccs1`, the Potency result is “inactive”.

For the compound `O=C(c1cc2nc(-c3ccccc3)cc(C(F)(F)F)n2n1)N1CCOCC1`, the Potency was inactive: > 76.9 µM.

For `Cc1sc2nc3n(c(=O)c2c1C)CCCS3`, the Potency is inactive: > 76.9 µM.

Turning to `COc1ccc(S(=O)(=O)N(CCCN2CCCC2=O)Cc2cc3c(C)ccc(C)c3[nH]c2=O)cc1`, the Potency is inactive: > 76.9 µM.

With `O=c1cc(CSc2nnc(COc3ccccc3Cl)o2)nc2sccn12`, the Potency was inactive: > 76.9 µM.

`C=CCn1c(COc2ccc(Cl)cc2)nnc1SCc1ccc(C#N)cc1`: the Potency is inactive: > 76.9 µM.

For `COC(=O)c1cc2oc(C)cc2n1CC(=O)Nc1ccc(OC)c(OC)c1OC`, the Potency entry was “inactive”.

On to `O=C(O)CS(=O)(=O)c1ccc(Oc2ccc(S(=O)(=O)CC(=O)O)cc2)cc1`, for which the Potency was inactive: > 76.9 µM.

Regarding `Cc1cc(Cl)ccc1N1C(=O)CC(SCCC(=O)O)C1=O` (configuration not stated), the Potency was inactive: > 76.9 µM.

Turning to `CCc1ccc(NC(=O)Nc2cccs2)cc1`, the Potency is inactive: > 76.9 µM.

As to `COc1ccc(-c2nn(C)c(=O)c3ccccc23)cc1CNC(=O)c1ccco1`, the Potency was inactive: > 76.9 µM.

For `C[C@@H]1C[C@H](O)c2cc(Cl)ccc2N1`, the Potency was inactive: > 76.9 µM.

For the compound `Cc1ccc(CN2CCN(CC(=O)NCc3ccc(Cl)cc3)C2=O)cc1`, the Potency was inactive: > 76.9 µM.

As to `CCS(=O)(=O)N1CCC(C(=O)OCC(=O)c2ccc(Br)cc2)CC1`, the Potency is inactive: > 76.9 µM.

In the case of `FC(F)(F)C12CC(c3ccccc3)=NCCN1CCN2` (configuration not stated), the Potency is inactive: > 76.9 µM.

Take `CCOc1ccccc1C(=O)N(CCC(=O)OC)c1ccccn1`: the Potency is inactive: > 76.9 µM.

As to `O=C(C1CCCO1)N1CCC(O)(c2ccccc2)CC1` (configuration not stated), the Potency is inactive: > 76.9 µM.

Regarding `COc1ccc2c(c1OC)C(=O)N(c1cccc(C(F)(F)F)c1)C2`, the Potency is inactive: > 76.9 µM.

With `CC1CC(C)(C)NC(=S)S1` (configuration not stated), the Potency is inactive: > 76.9 µM.
